These are literature values, as cited in patent US4092420A, “Novel soft N-chloroamino alcohol derivatives exhibiting antibacterial activity” (INTERx Research Corporation, priority 1977, dated 1978).

For data set [1] the following is noted: prior art; cited from earlier work.
The conditions of data set [2]: prior art; cited from earlier work. The source holds these as a separate data set.

As to `ClN(Cl)Cl` [NCl3], the Toxicity entry in data set [1] is given as “well-known toxic material”.
Take `COC(=O)CN(C)Cl` [methyl N-chlorosarcosinoate]: the “Stability (decomposition / disproportionation)” value in data set [2] is given as “explosive decomposition upon isolation”.
